In publication PMC5892938:
The list shows a part of the results. At the low end of the ranking the order means little.

These sequences were tested against GST-SBP-SLBP (stem-loop binding protein) (UniProt Q14493) (assay: targeted RNA Bind-n-Seq). Conditions: RBNS binding buffer: 25 mM Tris pH 7.5, 150 mM KCl, 3 mM MgCl2, 0.1% Tween, 0.5 mg/mL BSA, 1 mM DTT; 27 nM protein, 750 pM RNA pool; temperature not stated; high values mean tight binding.
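Also: DESeq read counts versus GST-SBP nonspecific binding control pulldown.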

Row | Sequence | binding signal (log2 fold change)
1 | GGUCACGUCUCAAUCAACUCUAGUCCCAGGGAAAUCCCUGGCAAUUUCAACAGCUCGCAGUCAAG | -0.236
2 | GGUCACGUCUCAAUCAACUCUUUCCCCAGGGAAACCCCUGGUUAAUUCAACAGCUCGCAGUCAAG | 0.228
3 | GGUCACGUCUCAAUCAACUCACUAGAGGGGGGGAAAACCCCUUUACCCUCAUCAUCAACAGCUCGCAGUCAAG | -0.194
4 | GGUCACGUCUCAAUCAACUCAUCUUCAGGAGUUUUCUCCUGUAAUUUCAACAGCUCGCAGUCAAG | 0.0704
5 | GGUCACGUCUCAAUCAACUCUUUCUCAGGAGUUUACUCCUGUAAUGUCAACAGCUCGCAGUCAAG | 0.198
6 | GGUCACGUCUCAAUCAACUCUUUAGAGGGGGGGAAAACCCCUUUGCCCUCAAAUUCAACAGCUCGCAGUCAAG | -0.337
7 | GGUCACGUCUCAAUCAACUCAUUUUCCAGGGAAAUCCCUGGCAUUUUCAACAGCUCGCAGUCAAG | -0.0699
8 | GGUCACGUCUCAAUCAACUCAUUUCCCAGGGAAAACCCUGGUAUUUUCAACAGCUCGCAGUCAAG | 0.171
9 | GGUCACGUCUCAAUCAACUCAACAGAGGGGGGGAAAACCCCUUUACCCUCAAAUUCAACAGCUCGCAGUCAAG | 0.0512
10 | GGUCACGUCUCAAUCAACUCAUCCCCCAGGGAAAGCCCUGGUAAUUUCAACAGCUCGCAGUCAAG | 0.0505
11 | GGUCACGUCUCAAUCAACUCAUCAGAGGGGGGGAAAACCCCUUUACCCUCACACUCAACAGCUCGCAGUCAAG | -0.193
12 | GGUCACGUCUCAAUCAACUCUACUCCAGGAGUUUCCUCCUGUAAUUUCAACAGCUCGCAGUCAAG | -0.00113
13 | GGUCACGUCUCAAUCAACUCAAUGUCCAGGGAAAUCCCUGGUUUUCUCAACAGCUCGCAGUCAAG | -0.133
14 | GGUCACGUCUCAAUCAACUCAUUUCCCAGGGAAAGCCCUGGUUUAUUCAACAGCUCGCAGUCAAG | 0.222
15 | GGUCACGUCUCAAUCAACUCUUCCCCCAGGGAAACCCCUGGCUUUUUCAACAGCUCGCAGUCAAG | -0.07
16 | GGUCACGUCUCAAUCAACUCUAUUCCAGGAGUUUUCUCCUGUAUUCUCAACAGCUCGCAGUCAAG | -0.00782
17 | GGUCACGUCUCAAUCAACUCUUUCGAGGGGGGGAAAACCCCUUUGCCCUCAUUUUCAACAGCUCGCAGUCAAG | -0.317
18 | GGUCACGUCUCAAUCAACUCCCAAGAGGGGGGGAAAACCCCUUUACCCUCGAUAUCAACAGCUCGCAGUCAAG | 0.21
19 | GGUCACGUCUCAAUCAACUCAUCUUCAGGAGUUUCCUCCUGUUAACUCAACAGCUCGCAGUCAAG | 0.0391
20 | GGUCACGUCUCAAUCAACUCAUUCUCCAGGGAAAGCCCUGGUAUAUUCAACAGCUCGCAGUCAAG | -0.106
21 | GGUCACGUCUCAAUCAACUCAAGUCCAGGAGUUUCCUCCUGUAAAUUCAACAGCUCGCAGUCAAG | -0.15
22 | GGUCACGUCUCAAUCAACUCUAUUCCCAGGGAAAGCCCUGGCAUAUUCAACAGCUCGCAGUCAAG | 0.211
23 | GGUCACGUCUCAAUCAACUCAUCGCCAGGAGUUUACUCCUGCAUAUUCAACAGCUCGCAGUCAAG | 0.125
24 | GGUCACGUCUCAAUCAACUCUUCCUCAGGAGUUUACUCCUGUAUAUUCAACAGCUCGCAGUCAAG | -0.0799
25 | GGUCACGUCUCAAUCAACUCAACUUCCAGGGAAAUCCCUGGCAAACUCAACAGCUCGCAGUCAAG | 0.0464

Row | Sequence | binding signal (log2 fold change)
26 | GGUCACGUCUCAAUCAACUCAUCUCCCAGGGAAACCCCUGGCAAAUUCAACAGCUCGCAGUCAAG | -0.0255
27 | GGUCACGUCUCAAUCAACUCAAUCCCAGGAGUUUUCUCCUGCAUAGUCAACAGCUCGCAGUCAAG | 0.157
28 | GGUCACGUCUCAAUCAACUCAACUCCCAGGGAAAUCCCUGGUAAAUUCAACAGCUCGCAGUCAAG | 0.152
29 | GGUCACGUCUCAAUCAACUCAAAAGAGGGGGGGAAAACCCCUUUGCCCUCACCGUCAACAGCUCGCAGUCAAG | 0.0854
30 | GGUCACGUCUCAAUCAACUCAUCUUCCAGGGAAAACCCUGGCAUUUUCAACAGCUCGCAGUCAAG | -0.0497
31 | GGUCACGUCUCAAUCAACUCCAAAGAGGGGGGGAAAACCCCUUUACCCUCAUCAUCAACAGCUCGCAGUCAAG | 0.0532
32 | GGUCACGUCUCAAUCAACUCCUAAGAGGGGGGGAAAACCCCUUUGCCCUCCAAAUCAACAGCUCGCAGUCAAG | 0.0614
33 | GGUCACGUCUCAAUCAACUCUUUUUCCAGGGAAACCCCUGGUAUUUUCAACAGCUCGCAGUCAAG | -0.285
34 | GGUCACGUCUCAAUCAACUCAUCCCCCAGGGAAAACCCUGGUUAACUCAACAGCUCGCAGUCAAG | 0.137
35 | GGUCACGUCUCAAUCAACUCUACUUCCAGGGAAAGCCCUGGUAUACUCAACAGCUCGCAGUCAAG | -0.0277
36 | GGUCACGUCUCAAUCAACUCAUCCCCCAGGGAAAGCCCUGGCUUUCUCAACAGCUCGCAGUCAAG | 0.0581
37 | GGUCACGUCUCAAUCAACUCACUCGAGGGGGGGAAAACCCCUUUACCCUCAACCUCAACAGCUCGCAGUCAAG | 0.19
38 | GGUCACGUCUCAAUCAACUCAUCCGCAGGAGUUUACUCCUGGAAAUUCAACAGCUCGCAGUCAAG | -0.174
39 | GGUCACGUCUCAAUCAACUCUUCUUCCAGGGAAAACCCUGGUAUACUCAACAGCUCGCAGUCAAG | -0.0494
40 | GGUCACGUCUCAAUCAACUCCAAAGAGGGGGGGAAAACCCCUUUACCCUCAAUAUCAACAGCUCGCAGUCAAG | 0.076
41 | GGUCACGUCUCAAUCAACUCAGUUUCAGGAGUUUUCUCCUGUUUUCUCAACAGCUCGCAGUCAAG | 0.217
42 | GGUCACGUCUCAAUCAACUCCACAGAGGGGGGGAAAACCCCUUUACCCUCAACUUCAACAGCUCGCAGUCAAG | -0.451
43 | GGUCACGUCUCAAUCAACUCAACGCCAGGAGUUUCCUCCUGUAAUUUCAACAGCUCGCAGUCAAG | 0.0807
44 | GGUCACGUCUCAAUCAACUCUAUUUCCAGGGAAACCCCUGGUUUAUUCAACAGCUCGCAGUCAAG | -0.229
45 | GGUCACGUCUCAAUCAACUCAACUUCCAGGGAAAUCCCUGGUAUAUUCAACAGCUCGCAGUCAAG | 0.154
46 | GGUCACGUCUCAAUCAACUCAAUCUCAGGAGUUUUCUCCUGUUUACUCAACAGCUCGCAGUCAAG | 0.00768
47 | GGUCACGUCUCAAUCAACUCUUCCCCCAGGGAAACCCCUGGUAUUCUCAACAGCUCGCAGUCAAG | -0.117
48 | GGUCACGUCUCAAUCAACUCAUCCCCAGGAGUUUCCUCCUGCAAUCUCAACAGCUCGCAGUCAAG | 0.268
49 | GGUCACGUCUCAAUCAACUCUUUUUCCAGGGAAACCCCUGGCUAUUUCAACAGCUCGCAGUCAAG | -0.209
50 | GGUCACGUCUCAAUCAACUCUUCUUCCAGGGAAAUCCCUGGUAAACUCAACAGCUCGCAGUCAAG | 0.00324

Row | Sequence | binding signal (log2 fold change)
51 | GGUCACGUCUCAAUCAACUCUUUCCCAGGAGUUUUCUCCUGUAUUUUCAACAGCUCGCAGUCAAG | 0.0944
52 | GGUCACGUCUCAAUCAACUCAGUCCCAGGAGUUUCCUCCUGCAUUCUCAACAGCUCGCAGUCAAG | 0.0232
53 | GGUCACGUCUCAAUCAACUCUUUCCCCAGGGAAAUCCCUGGCUUUUUCAACAGCUCGCAGUCAAG | -0.205
54 | GGUCACGUCUCAAUCAACUCAUCCUCCAGGGAAACCCCUGGCAUACUCAACAGCUCGCAGUCAAG | -0.027
55 | GGUCACGUCUCAAUCAACUCAAUCCCAGGAGUUUACUCCUGUUUAUUCAACAGCUCGCAGUCAAG | -0.0735
56 | GGUCACGUCUCAAUCAACUCAUCGGCAGGAGUUUUCUCCUGGAUAUUCAACAGCUCGCAGUCAAG | 0.131
57 | GGUCACGUCUCAAUCAACUCUACUUCCAGGGAAAACCCUGGUUUACUCAACAGCUCGCAGUCAAG | 0.207
58 | GGUCACGUCUCAAUCAACUCUAUUCCAGGAGUUUUCUCCUGUAUUUUCAACAGCUCGCAGUCAAG | -0.0336
59 | GGUCACGUCUCAAUCAACUCACAAGAGGGGGGGAAAACCCCUUUGCCCUCACUUUCAACAGCUCGCAGUCAAG | -0.176
60 | GGUCACGUCUCAAUCAACUCACACGAGGGGGGGAAAACCCCUUUACCCUCAAAAUCAACAGCUCGCAGUCAAG | 0.0825
61 | GGUCACGUCUCAAUCAACUCCCUAGAGGGGGGGAAAACCCCUUUGCCCUCCAUUUCAACAGCUCGCAGUCAAG | -0.5
62 | GGUCACGUCUCAAUCAACUCAUCCCCCAGGGAAAACCCUGGCUAACUCAACAGCUCGCAGUCAAG | 0.0392
63 | GGUCACGUCUCAAUCAACUCUAUUUCCAGGGAAAACCCUGGCAUUCUCAACAGCUCGCAGUCAAG | 0.0709
64 | GGUCACGUCUCAAUCAACUCAUCCUCAGGAGUUUCCUCCUGCUUAUUCAACAGCUCGCAGUCAAG | 0.0629
65 | GGUCACGUCUCAAUCAACUCAAUCCCCAGGGAAAUCCCUGGUUUAUUCAACAGCUCGCAGUCAAG | -0.0516
66 | GGUCACGUCUCAAUCAACUCAUUUUCAGGAGUUUCCUCCUGCAAUUUCAACAGCUCGCAGUCAAG | -0.0569
67 | GGUCACGUCUCAAUCAACUCAAACGAGGGGGGGAAAACCCCUUUACCCUCCAAUUCAACAGCUCGCAGUCAAG | 0.0464
68 | GGUCACGUCUCAAUCAACUCUAUUUCAGGAGUUUUCUCCUGUUUUUUCAACAGCUCGCAGUCAAG | 0.0196
69 | GGUCACGUCUCAAUCAACUCAGUUUCAGGAGUUUGCUCCUGCUUAUUCAACAGCUCGCAGUCAAG | 0.11
70 | GGUCACGUCUCAAUCAACUCCUACGAGGGGGGGAAAACCCCUUUACCCUCCAUUUCAACAGCUCGCAGUCAAG | -0.0353
71 | GGUCACGUCUCAAUCAACUCUUUCCCCAGGGAAAUCCCUGGUAGUCUCAACAGCUCGCAGUCAAG | 0.13
72 | GGUCACGUCUCAAUCAACUCUAUUCCCAGGGAAACCCCUGGCUUAUUCAACAGCUCGCAGUCAAG | 0.00434
73 | GGUCACGUCUCAAUCAACUCUUCUUCCAGGGAAAUCCCUGGCAAUGUCAACAGCUCGCAGUCAAG | 0.132
74 | GGUCACGUCUCAAUCAACUCAUCCCCAGGAGUUUGCUCCUGCUAUUUCAACAGCUCGCAGUCAAG | 0.174
